Experimental data as given in PubChem BioAssay AID588579 (National Center for Advancing Translational Sciences (NCATS), 2011).
Values joined by “and” are separate entries in the source; they are usually repeats but may differ in a detail not shown here. Equal entries are not always repeated. Among all 400,000 compounds or so, about 2,200 (0.55%) were called active. The shares of active, inactive and inconclusive entries below differ from those in the screen. The call rests on the fitted dose curve; in most records, active means well fitted inhibition curve with a large enough effect; inconclusive means small, poorly fitted or top-dose-only effect, or another doubt; inactive means no such curve, though single readings can be large or run the other way. Where the call is inconclusive, the potency comes from a doubtful curve fit.

target: DNA polymerase kappa (Homo sapiens) (UniProt Q9UBT6); experiment: qHTS for Inhibitors of Polymerase Kappa; conditions: purified Pol kappa, fluorescent DNA synthesis assay, 10 min; series mostly up to 107 µM
Procedure, shortened: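 Kinetic fluorescence screen: compound preincubated 15 min RT with 10 nM enzyme; 50 nM substrate (final) initiates; reads at 0/10 min.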
Potency means the concentration at half of the fitted maximal effect; tags describe the fitted curve by direction and shape.

Chain of UniProt Q9UBT6 (Q9UBT6 whole entry, looked up): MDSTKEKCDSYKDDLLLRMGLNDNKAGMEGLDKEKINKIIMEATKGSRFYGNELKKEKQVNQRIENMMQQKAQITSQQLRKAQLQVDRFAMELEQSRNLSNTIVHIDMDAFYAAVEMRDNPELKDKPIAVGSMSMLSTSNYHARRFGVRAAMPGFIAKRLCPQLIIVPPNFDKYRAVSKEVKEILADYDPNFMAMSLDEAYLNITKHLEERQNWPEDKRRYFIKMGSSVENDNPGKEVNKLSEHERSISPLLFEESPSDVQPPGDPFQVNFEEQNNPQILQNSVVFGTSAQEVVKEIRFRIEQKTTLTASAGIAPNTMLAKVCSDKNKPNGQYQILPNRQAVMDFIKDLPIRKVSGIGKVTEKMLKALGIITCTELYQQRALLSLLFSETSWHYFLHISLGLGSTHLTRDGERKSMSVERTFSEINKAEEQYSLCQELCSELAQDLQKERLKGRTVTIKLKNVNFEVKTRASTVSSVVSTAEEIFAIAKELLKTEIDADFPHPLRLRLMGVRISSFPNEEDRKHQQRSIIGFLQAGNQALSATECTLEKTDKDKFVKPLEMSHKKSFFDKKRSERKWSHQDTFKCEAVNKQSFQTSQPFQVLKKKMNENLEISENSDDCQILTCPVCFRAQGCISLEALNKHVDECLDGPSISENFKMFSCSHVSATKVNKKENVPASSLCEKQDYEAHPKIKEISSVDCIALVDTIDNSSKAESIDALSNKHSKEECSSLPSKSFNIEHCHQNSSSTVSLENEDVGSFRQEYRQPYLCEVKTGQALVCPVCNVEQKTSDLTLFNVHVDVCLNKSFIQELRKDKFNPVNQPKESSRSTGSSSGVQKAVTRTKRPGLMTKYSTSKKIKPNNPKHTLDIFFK

Structure (SMILES) | Potency
COc1ccc(O)c(C(=O)c2cnc3nc4ccccc4n3c2)c1 | inconclusive: 89.1 µM [inhibitor, single point]
Cc1ccc(NC(=O)CN2C(=O)C(c3ccc(F)cc3)=NC23CCCCCC3)c(C)c1 | inconclusive: 89.1 µM [inhibitor, single point]
CC(C)(C)OC(=O)N1CC23CC(c4ccc(F)cc4)C(CC2S1(=O)=O)O3 (centres undefined) | inactive
CCN(CC)CCCN1C=C2C(=O)C(C)(OC(=O)C3CCCC3)C(=O)C=C2C=C1c1ccsc1 (centres undefined) | inconclusive: 63.1 µM [inhibitor, partial curve, poor fit]
COc1ccc(-c2nn(C)c3sc(C(=O)NCCN(C)C)cc23)cc1OC | inconclusive: 89.1 µM [inhibitor, single point] and inconclusive: 56.2 µM [inhibitor, partial curve, poor fit]
Cc1cc(C)nc(SC2CC(=O)N(c3ccc(Cl)cc3)C2=O)n1 (centres undefined) | inconclusive: 79.4 µM [inhibitor, partial curve, poor fit]
CCOC(=O)c1c(Nc2ccc(C)c(C)c2)nnc(-c2ccccc2)c1-c1ccccc1 | inactive
Cc1ccc(NC(=O)c2c(NC(=O)CCC(=O)O)sc3c2CCCCC3)cc1 | inconclusive: 89.1 µM [inhibitor, single point]
CN(C)C(=S)NC(=S)Nc1ccc2ccccc2c1 | inactive
COc1cc(/C=C2/C(=O)NN(c3ccccc3)C2=O)cc(Br)c1O | inactive
O=C(/C=C/c1ccco1)Nc1ccccc1C(=O)O | active: 79.4 µM
CCOC(=O)N1CCN(CC(=O)NC(=O)Nc2ccc3c(c2)OCCO3)CC1 | inconclusive: 89.1 µM [inhibitor, partial curve, poor fit]
c1ccc(CSc2nnc(-c3ccco3)c(-c3ccco3)n2)cc1 | active: 20 µM
CC(C)NC(=O)COC(=O)c1ccccc1OCC(=O)Nc1ccc(Br)cc1 | inactive
O=C(CSc1ccsc1[N+](=O)[O-])NCc1ccco1 | active: 79.4 µM
Cc1ccc(S(=O)(=O)c2nnn3c2nc(NC2CCN(Cc4ccccc4)CC2)c2ccccc23)cc1C | inconclusive: 89.1 µM [inhibitor, partial curve, poor fit]
COCCn1nnnc1C(c1ccc(OC)c(OC)c1)N1CCN(C(=O)c2ccco2)CC1 (centres undefined) | inconclusive: 39.8 µM [inhibitor, single point]
Cc1ccc(NC(=O)CSCC(=O)NC2CCCCC2)cc1 | inconclusive: 100 µM [inhibitor, single point]
Cc1ccc(C(=O)Oc2ccc(C(=O)COC(=O)C3CC(=O)N(Cc4ccco4)C3)cc2)cc1 (centres undefined) | active: 44.7 µM
O=C(COC(=O)/C=C/c1cccc(F)c1)Nc1ccc(Cl)cn1 | inactive
O=c1cc2ncc(-c3[nH]ncc3[N+](=O)[O-])cn2[nH]1 | inconclusive: 100 µM [inhibitor, single point]
CC1CCCCN1C(=O)c1ccc2c(c1)N(Cc1ccc(Cl)cc1)C(=O)c1ccccc1S2=O (centres undefined) | inactive
COC(=O)c1cc(S(=O)(=O)NCc2ccccc2OC)cn1C | inconclusive: 89.1 µM [inhibitor, partial curve, poor fit]

Structure (SMILES) | Potency
CCCNc1nc2nc3ccccn3c(=O)c2cc1C(=O)NCCN1CCOCC1 | inactive
CCC(CC)C(=O)Nc1ccc(OCc2cc(=O)n3ccc(C)cc3n2)cc1 | inactive
Nc1cc(N)cc(N)c1 | inconclusive: 89.1 µM [inhibitor, partial curve, poor fit]
COc1ccc(NS(=O)(=O)c2ccc(NC(=O)c3ccccc3)cc2)nn1 | inactive
O=C1OCCN1N1CCOC1=O | inactive
N#Cc1nc(-c2ccc(OCc3ccccc3Cl)cc2)oc1N1CCCCCC1 | inactive
COc1cc(NC(=O)C2CCCN(S(=O)(=O)c3ccc4c(c3)CCCN4C(C)=O)C2)cc(OC)c1 (centres undefined) | inactive
CCC1CN(S(=O)(=O)c2cc(-c3cc(C)no3)ccc2C)c2cc(Cl)ccc2O1 (centres undefined) | inactive
CC(/C=C/c1ccco1)=N\NC(=O)c1cc(C)[nH]n1 | inconclusive: 89.1 µM [inhibitor, single point]
CC(C)NC(=O)C(=O)Nc1cc2c3c(c1)CCC(=O)N3CCC2 | inactive
O=C(O)c1ccc(/C=C/c2nc3sc4c(c3c(=O)[nH]2)CCC4)cc1 | inconclusive: 100 µM [inhibitor, single point]
CC(=O)c1ccccc1Oc1cc(NN2CCCCC2)c([N+](=O)[O-])cc1[N+](=O)[O-] | inconclusive: 89.1 µM [inhibitor, partial curve, poor fit]
Cc1ccccc1NC(=O)COC(=O)c1ccc(S(C)(=O)=O)c([N+](=O)[O-])c1 | inactive
Nc1c(S(=O)(=O)O)cc(Nc2ccc(Nc3nc(Cl)nc(Nc4ccc(S(=O)(=O)O)cc4)n3)c(S(=O)(=O)O)c2)c2c1C(=O)c1ccccc1C2=O | active: 2.67 µM
CC(C)(C)OC(=O)N1CCCC(C(=O)CC#N)C1 (centres undefined) | inconclusive: 79.4 µM [inhibitor, partial curve, poor fit]
Cc1cc(=O)n2c(c1C#N)SC1CCCCC12O (centres undefined) | inactive
O=C(Nc1nccs1)c1cc(-c2ccco2)nc2ccccc12 | inconclusive: 50.1 µM [inhibitor, partial curve]
CCCCN(C(=O)CN1C(=O)C2CCCCC2C1=O)c1c(N)n(CCC)c(=O)[nH]c1=O (centres undefined) | inactive
COc1ccc(NC(=O)c2oc3ccccc3c2NC(=O)C2CCCCC2)c(OC)c1 | inactive
Clc1ccc(-n2c(Cc3ccccc3)nnc2SCc2nc(-c3cccs3)no2)cc1 | inactive
CCOC(=O)C1=CN(C(=O)OC(C)(C)C)C(CN2C(=O)COCC2=O)C1 (centres undefined) | inconclusive: 100 µM [inhibitor, partial curve, poor fit]
CCCn1c2ccccc2c2nnc(SCC(=O)Nc3nnc(CC(=O)OCC)s3)nc21 | inconclusive: 79.4 µM [inhibitor, partial curve, poor fit]
N#CCc1ccc(NC(=O)/C=C/c2ccc([N+](=O)[O-])o2)cc1 | inconclusive: 56.2 µM [inhibitor, partial curve, poor fit]

Structure (SMILES) | Potency
C=C1CC[C@@H]2[C@](C)(CO)[C@H](O)CC[C@@]2(C)[C@@H]1/C=C/C1=CCOC1=O | inconclusive: 89.1 µM [inhibitor, single point]
CN(C)S(=O)(=O)N(CC(=O)N(Cc1ccccc1)Cc1ccccc1)c1ccccc1 | inconclusive: 100 µM [inhibitor, single point]
O=C(O)c1ccc(CN2C(=O)CSC2=S)cc1 | active: 50.1 µM
CCOc1ccc(NC(=O)c2ccc3c(SCC(=O)O)c4c(nc3c2)CCCC4)cc1 | inactive
COCCn1c(SCC(=O)Nc2ccc(OC)cc2OC)nc2ccccc2c1=O | inconclusive: 89.1 µM [inhibitor, single point]
CCN(CC)CCCC(C)Nc1c2ccc(Cl)cc2nc2ccc(OC)cc12 (centres undefined) | active: 50.1 µM and active: 8.91 µM
Cc1ccc(NC(=O)c2cnn3c(C(F)F)cc(-c4ccccc4)nc23)c(C)c1 | inconclusive: 89.1 µM [inhibitor, partial curve, poor fit]
N=C1/C(=C/c2ccc(OCc3ccccc3)cc2)C(=O)N=C2SC(CC(=O)N3CCOCC3)=NN12 | active: 89.1 µM
O=C(O)c1cccc(-c2ccc(/C=C3/SC(=Nc4ccccc4)N(Cc4cccnc4)C3=O)o2)c1 | inconclusive: 56.2 µM [inhibitor, partial curve, poor fit]
CC(C)N1CCc2c(sc(NC(=O)c3ccc(C(=O)c4ccccc4)cc3)c2C(N)=O)C1 | inconclusive: 56.2 µM [inhibitor, partial curve, poor fit]
Cc1cc(C=O)c(C)n1-c1sc2c(c1C(=O)O)CCCC2 | inactive
Cc1ccc(C)c(NC(=O)c2ccc3c(O)c(S(=O)(=O)c4ccc(Cl)cc4)c(=O)[nH]c3c2)c1 | inactive
O=c1c(C(c2ccc(F)cc2)c2c(O)nc3n(c2=O)CCS3)c(O)nc2n1CCS2 | inconclusive: 89.1 µM [inhibitor, single point]
CCN(C(=O)COC(=O)c1ccc([N+](=O)[O-])o1)C1CCCCC1 | inconclusive: 79.4 µM [inhibitor, partial curve, poor fit]
NS(=O)(=O)c1ccc(NC(=S)NC(=O)/C=C/c2ccco2)cc1 | inconclusive: 79.4 µM [inhibitor, partial curve]
COc1ccc(NC(=O)C2CCN(S(=O)(=O)c3ccc4[nH]c(=O)ccc4c3)CC2)c(OC)c1 | inactive
O=C(O)CCc1ccc(-c2cccs2)n1-c1ccc(C(=O)O)cc1 | inconclusive: 79.4 µM [inhibitor, partial curve, poor fit]
CC(=O)Nc1ccc(C2=NNC(=Nc3ccc(S(=O)(=O)N4CCOCC4)cc3)SC2)cc1 | inconclusive: 79.4 µM [inhibitor, partial curve, poor fit]
COc1ccc(S(=O)(=O)Nc2ccc3c(c2)N(C(C)=O)CCC3)cc1 | inactive
CC1CCCC(NC(=O)C2N(CCCN3CCCC3)C(=O)C3C(C(=O)Nc4ccc(Cl)cc4)C4C=CC32O4)C1C (centres undefined) | inactive
Cc1c(CCC(=O)O)c(=O)oc2c(C)c3occ(-c4ccc(Cl)cc4)c3cc12 | active: 89.1 µM
CC(C)Oc1ccc(C(=O)N/N=C/c2ccc(-c3ccc(S(=O)(=O)Nc4ncccn4)cc3)o2)cc1 | active: 44.7 µM
Cc1ccc(-c2cc(C(=O)N/N=C/c3c[nH]c4ccccc34)n[nH]2)o1 | inconclusive: 89.1 µM [inhibitor, partial curve, poor fit]
